From PubChem BioAssay AID1745853 (National Center for Advancing Translational Sciences (NCATS), 2022) come the findings set out here.

Assay in all cases: Primary Screen for Target Class Profiling of Small Molecule Inhibitors of Methyltransferases
The target of assay [1] is Glycine N-methyltransferase (Homo sapiens) (UniProt Q14749). Particulars: purified enzyme, MTase-Glo SAH luminescence; measured here: GNMT inhibition; at 40 µM; stronger effect = lower value. An outline of the steps: (§1)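 Each enzyme was assayed with SAM and its substrate. SAH formation detected by MTase-Glo luminescence; single-point 40 uM screen[…].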
Assay [2] has as its target Guanidinoacetate N-methyltransferase (Homo sapiens) (UniProt Q14353). To be noted: purified enzyme, MTase-Glo SAH luminescence; measured here: GAMT inhibition; at 40 µM; stronger effect = lower value. An outline of the steps: as §1
For assay [3], the target named is Histamine N-methyltransferase (Homo sapiens) (UniProt P50135). To be noted: purified enzyme, MTase-Glo SAH luminescence; measured here: HNMT inhibition; at 40 µM; stronger effect = lower value. The method, boiled down:
as §1

The target of assay [4] is Nicotinamide N-methyltransferase (Homo sapiens) (UniProt P40261). To be noted: purified enzyme, MTase-Glo SAH luminescence; measured here: NNMT inhibition; at 40 µM; stronger effect = lower value. An outline of the steps:
as §1

The target in assay [5] is Phenylethanolamine N-methyltransferase (Homo sapiens) (UniProt P11086). To be noted: purified enzyme, MTase-Glo SAH luminescence; measured here: PNMT inhibition; at 40 µM; stronger effect = lower value. An outline of the steps:
as §1

This is one part of the list. The main result of the screen is listed elsewhere. These columns were measured beside it and carry no call.
% is scaled to controls: 0 for no effect and ±100 for the full control effect.

Take `CCCN(C)C(=O)c1c(-c2ccc(F)cc2)noc1[C@H](C)O`: the activity change, negative = inhibition is -2.13% in assay [1]; 0.541% in assay [2]; 1.55% in assay [3]; 1.35% in assay [4]; 2.69% in assay [5].

For the compound `CCCn1c(=O)c2ccc(C(=O)NC3CCCC3)cc2n2c(=O)n(CC(=O)c3ccc(OCC)cc3)nc12`, the activity change, negative = inhibition in assay [1] was 0.707%; in assay [2], 3.02%; in assay [3], -4.16%; in assay [4], 1.39%; in assay [5] it was -1.76%.

As to `COc1ccc(C(=O)Cn2nc3n(CC(C)C)c(=O)c4ccc(C(=O)NC(C)C)cc4n3c2=O)cc1`, the activity change, negative = inhibition in assay [1] is 5.75%; in assay [2], 0.855%; in assay [3], 9.12%; in assay [4], -0.839%; in assay [5], 5.03%.

With `CC(=O)N1Cc2ccccc2CC2(CCCN2Cc2ccccn2)C1` (configuration not stated), the activity change, negative = inhibition in assay [1] is -6.99%; in assay [2], -0.623%; in assay [3], 0.533%; in assay [4] it was -5.02%; in assay [5], 2.81%.

For the compound `CN(C)[C@@H]1C[C@H](CO)[C@@H](O)[C@H]1O`, the activity change, negative = inhibition in assay [1] was -3.35%; in assay [2], -7.42%; in assay [3] it was -0.167%; in assay [4], -10.7%; in assay [5], -3.77%.

Consider `CCC(C(=O)NCCc1cccs1)n1ccc2cc(S(=O)(=O)N3CCCCC3)ccc21` (configuration not stated), for which the activity change, negative = inhibition stood at 9.84% in assay [1]; 1.84% in assay [2]; 5.66% in assay [3]; 5.76% in assay [4]; 5.54% in assay [5].

For `CC(C)CCNC(=O)C1(C)Cn2c(cc3ccccc32)C(=O)N1CCC(C)C` (configuration not stated), the activity change, negative = inhibition in assay [1] was -5.99%; in assay [2], 4.22%; in assay [3], -0.424%; in assay [4], -8.9%; in assay [5], -1.3%.

Consider `CC1(C(=O)NC2CCCCC2)Cn2nc(-c3ccco3)cc2C(=O)N1Cc1ccc2c(c1)OCO2` (configuration not stated), for which the activity change, negative = inhibition in assay [1] is 1.38%; in assay [2] it was 0%; in assay [3] it was 3.9%; in assay [4] it was 2%; in assay [5], -0.88%.

Consider `CC(C)Cn1c(=O)c2ccc(C(=O)NC3CCCC3)cc2n2c(=O)n(Cc3ccc(F)cc3)nc12`, for which the activity change, negative = inhibition in assay [1] was 6.65%; in assay [2], 1.91%; in assay [3], 10.8%; in assay [4], 2.94%; in assay [5], 4.14%.

Take `Cc1ccccc1Cn1nc2n(C(C)C)c(=O)c3ccc(C(=O)NC4CCCC4)cc3n2c1=O`: the activity change, negative = inhibition in assay [1] was -1.78%; in assay [2], 4.2%; in assay [3], 4.75%; in assay [4], 2.58%; in assay [5] it was 2.58%.

Take `Cc1ccc(CCNC(=O)c2cc3n(n2)CC(C)(C(=O)NC2CCCC2)N(C)C3=O)cc1` (configuration not stated): the activity change, negative = inhibition amounted to 6.46% in assay [1]; 0% in assay [2]; 3.87% in assay [3]; 11.9% in assay [4]; 3.24% in assay [5].

In the case of `CCOC(=O)c1cc2n(n1)CC(C)(C(=O)NC1CCCCC1)N(c1cc(C)ccc1C)C2=O` (configuration not stated), the activity change, negative = inhibition in assay [1] is -1.93%; in assay [2], 2.31%; in assay [3], -12%; in assay [4], 0.919%; in assay [5], 2.01%.

With `Cc1ccc(NS(=O)(=O)c2ccc3[nH]c(=O)[nH]c3c2)c(C)c1`, the activity change, negative = inhibition in assay [1] was 6.95%; in assay [2], 1.86%; in assay [3], 13.9%; in assay [4], -1.38%; in assay [5], -6.7%.

On to `O=C(CCc1ccccc1)N1CCNc2cnc(Nc3cccnc3)nc2C1`, for which the activity change, negative = inhibition in assay [1] was -54.8%; in assay [2], -51.1%; in assay [3], -71.8%; in assay [4], -61.9%; in assay [5], -49%.

For `O=C(c1cc(-c2ccc(Cl)cc2)c2nncn2n1)N1CCOCC1`, the activity change, negative = inhibition in assay [1] was -5.62%; in assay [2], -6.22%; in assay [3] it was -2.67%; in assay [4] it was -10.3%; in assay [5], -6.42%.

As for `O=C(O)c1ccnc(-c2ccnc(NCCN3CCCCC3CO)n2)c1` (configuration not stated), the activity change, negative = inhibition was 0.089% in assay [1]; 1.04% in assay [2]; -3.21% in assay [3]; -1.24% in assay [4]; 1.4% in assay [5].

`Cc1ccccc1N1C(=O)c2cc(C(C)(C)C)nn2CC1(C)C(=O)NC1CCCCC1` (configuration not stated): the activity change, negative = inhibition is -3.52% in assay [1]; 0% in assay [2]; 0.829% in assay [3]; -0.429% in assay [4]; -1.91% in assay [5].

Consider `Cc1ccc(NS(=O)(=O)c2cc3[nH]c(=O)[nH]c3cc2C)cc1Cl`, for which the activity change, negative = inhibition in assay [1] is -6.37%; in assay [2] it was -1.78%; in assay [3], -5.96%; in assay [4], -20.4%; in assay [5] it was -23.2%.

In the case of `Cc1ccccc1NC(=O)N1CCn2c(C)ccc2C1C(C)C` (configuration not stated), the activity change, negative = inhibition in assay [1] was determined as 9.64%; in assay [2], 0%; in assay [3], 0.925%; in assay [4] it was 0.095%; in assay [5], 3.58%.

Turning to `CCC1(C(=O)NCCN2CCOCC2)CCCCC(=O)N1` (configuration not stated), the activity change, negative = inhibition was -1.67% in assay [1]; 0.327% in assay [2]; 0.691% in assay [3]; -3.95% in assay [4]; 9.01% in assay [5].

Consider `Cn1c(=O)cc(N2CCCC(N)C2)n(Cc2ccccc2C#N)c1=O` (configuration not stated), for which the activity change, negative = inhibition in assay [1] was 0.88%; in assay [3] it was 10.1%.

With `CCCn1ccnc1-c1c(-c2ccccc2)ncn1CCCC(=O)OC`, the activity change, negative = inhibition is -3.73% in assay [1]; -6.97% in assay [2]; -2.05% in assay [3]; -10.1% in assay [4]; -8.34% in assay [5].

Consider `CC1(C)CC[C@]23CO[C@@]4(CCC5[C@@]6(C)CC[C@H](O[C@@H]7OC[C@H](O[C@@H]8O[C@H](CO)[C@@H](O)[C@H](O)[C@H]8O[C@@H]8OC[C@@H](O)[C@H](O)[C@H]8O)[C@H](O)[C@H]7O)[C@@](C)(CO)C6CC[C@@]5(C)[C@]4(C)CC2=O)[C@@H]3C1` (some centres not stated), for which the activity change, negative = inhibition in assay [1] was found to be 3.02%; in assay [2], 15.3%; in assay [3], 5.27%; in assay [4] it was 4.55%; in assay [5] it was 10.4%.

As for `Cc1ccc(Cn2c(=O)c3ccccc3n3c(CCC(=O)N4CCOCC4)nnc23)cc1`, the activity change, negative = inhibition is -4.45% in assay [1]; 1.05% in assay [2]; 12% in assay [3]; 9.31% in assay [4]; 3.53% in assay [5].

`Cc1c(C(=O)N[C@@H]2COCC[C@H]2Oc2ccc(C(N)=O)cc2)cnn1C`: the activity change, negative = inhibition in assay [1] is -2.71%; in assay [2] it was 1.04%; in assay [3], 1.87%; in assay [4] it was -2.16%; in assay [5] it was 12.6%.

Regarding `CCN1CCN(C(=O)c2cc(-c3ccccc3OC)c3nncn3n2)CC1`, the activity change, negative = inhibition was -5.54% in assay [1]; -6.05% in assay [2]; -3.98% in assay [3]; -12.8% in assay [4]; 1.87% in assay [5].

In the case of `O=C(Cc1ccsc1)NCC1CCCCC(=O)N1` (configuration not stated), the activity change, negative = inhibition in assay [1] was -6.32%; in assay [2] it was 0.011%; in assay [3] it was 2.2%; in assay [4] it was -4.56%; in assay [5] it was -1.04%.

Consider `CN(C)[C@@H]1CN(Cc2ccncc2F)CC[C@@H]1CNC(=O)C1CC1`, for which the activity change, negative = inhibition in assay [1] was -2.25%; in assay [2] it was 0.002%; in assay [3], 0.189%; in assay [4], -3.4%; in assay [5], 0.647%.

`CC[C@@H](C)Nc1cc(C(=O)NC2CC3CCC(C2)N3c2ccc(C(=O)C3CC3)cn2)c(C)cc1C(N)=O` (some centres not stated): the activity change, negative = inhibition was -7.18% in assay [1]; 2.57% in assay [2]; 6.59% in assay [3]; -44.2% in assay [4]; -2.22% in assay [5].
